Measured values as given in the supplement of paper PMC12217912.
This is one part of the list. The full chains were built here from the parent and the listed change. Values near 0.05 are background.

B1: TEV protease; numbered along this chain (parent)
chain: MGESLFKGPRDYNPISSSICHLTNESDGHTTSLYGIGFGPFIITNKHLFRRNNGTLVVQSLHGVFKVKDTTTLQQHLVDGRDMIIIRMPKDFPPFPQKLKFREPQREERICLVTTNFQTKSMSSMVSDTSCTFPSGDGIFWKHWIQTKDGQCGSPLVSTRDGFIVGIHSASNFTNTNNYFTSVPKNFMELLTNQEAQQWVSGWRLNADSVLWGGHKVFMVKPEEPFQPVKEATQL

Variants of: B1
Test: raw area under fraction-flipped curve 0-4 h after induction (AUC4h, not background-subtracted), DNA-recorder readout of cleavage of the substrate (dimensionless); higher = more cleavage of the substrate by the protease variant
Details: temperature: 34 °C; time window: 0-4 h after rhamnose induction
Protocol: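 In vivo DNA recorder in E. coli TOP10(DE3) ΔrhaA at 34 °C. Each TEVp single-site mutant (parent TEVp 0) is paired with a single-site variant of the 7-mer TEVs (canonical ENLYFQ|S). The substrate sits between flexible linkers in a Bxb1-sfGFP-TEVs-SsrA fusion, so cleavage stabilises Bxb1 and speeds flipping of a recombination array, read by NGS. The value is the raw area under the fraction-flipped curve over 0-4 h after rhamnose induction (AUC4h), with ≥20 reads per time point. It is not background-subtracted; inactive controls average about 0.047.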
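Note: Bxb1 expression induced with 0.2% (w/v) L-rhamnose at OD600 near 0.5, cultures sampled hourly, flipped fraction per protease–substrate barcode pair counted by paired-end Illumina sequencing.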

| Variant | area with substrate ENLCFQS | area with substrate ENLDFQS | area with substrate ENLEFQS | area with substrate ENLFFQS | area with substrate ENLGFQS | area with substrate ENLHFQS | area with substrate ENLIFQS | area with substrate ENLKFQS | area with substrate ENLNFQS | area with substrate ENLRFQS | area with substrate ENLSFQS | area with substrate ENLMFQS | area with substrate ENLPFQS | area with substrate ENLTFQS | area with substrate ENLVFQS | area with substrate ENLAFQS | area with substrate ENLLFQS | area with substrate ENLQFQS | area with substrate ENLWFQS |
| --- | --- | --- | --- | --- | --- | --- | --- | --- | --- | --- | --- | --- | --- | --- | --- | --- | --- | --- | --- |
| S124R | 0.0826 | 0.0687 | 0.0698 | 0.0951 | 0.0589 | 0.0657 | 0.101 | 0.0825 | 0.0633 | 0.0844 | 0.0671 |  |  |  |  |  |  |  |  |
| S127E | 0.0835 | 0.0657 | 0.066 | 0.0769 |  | 0.116 |  | 0.0727 | 0.0831 | 0.0556 | 0.0479 | 0.0722 | 0.0673 | 0.0887 | 0.105 |  |  |  |  |
| K221F | 0.0715 | 0.0636 | 0.0668 | 0.0767 | 0.0623 | 0.0775 | 0.0715 | 0.0852 | 0.0674 | 0.0808 | 0.0648 | 0.0821 | 0.057 |  | 0.0659 | 0.0783 | 0.117 | 0.071 | 0.0586 |
| P9F | 0.0612 | 0.0707 | 0.0643 | 0.0755 |  | 0.0609 | 0.0629 | 0.0601 | 0.0594 | 0.0699 |  | 0.0557 | 0.0523 |  |  |  | 0.0698 | 0.0769 | 0.0807 |
| S18A | 0.0799 | 0.0436 |  | 0.0897 |  |  | 0.0881 | 0.0778 |  | 0.072 |  |  | 0.0903 |  |  |  |  | 0.0549 | 0.0717 |
| S4H | 0.0628 | 0.0611 | 0.0706 | 0.104 |  | 0.0818 | 0.0847 | 0.079 | 0.055 |  |  |  |  | 0.0816 |  |  |  | 0.0695 | 0.0878 |
| R102H | 0.0644 | 0.0562 | 0.0652 | 0.0584 |  | 0.0456 | 0.0742 | 0.0781 | 0.0473 |  | 0.0532 |  | 0.0482 |  | 0.0529 |  |  | 0.0741 | 0.0556 |
| H47E | 0.0642 | 0.055 | 0.061 | 0.0595 |  | 0.0503 |  | 0.0701 | 0.0634 |  | 0.0486 | 0.0611 |  | 0.0766 | 0.0587 |  | 0.0642 | 0.0551 |  |
| Q227K | 0.0753 | 0.0607 |  | 0.0878 |  | 0.0633 | 0.0771 | 0.0711 | 0.0492 |  |  |  |  |  |  | 0.0505 | 0.0685 |  |  |
| Q227V | 0.0813 |  |  | 0.118 | 0.0606 | 0.071 | 0.113 |  | 0.0533 |  | 0.0659 |  | 0.0691 |  | 0.109 | 0.0626 |  | 0.0776 | 0.0614 |
| S158G | 0.0825 | 0.0637 | 0.0691 | 0.108 |  | 0.0662 | 0.0722 | 0.0963 | 0.0575 | 0.0711 | 0.0745 | 0.0639 | 0.0524 | 0.0721 |  |  |  | 0.0804 |  |
| V229C |  | 0.0645 | 0.0646 | 0.0732 | 0.0678 | 0.0743 | 0.0786 | 0.0938 |  | 0.0603 | 0.062 | 0.0781 | 0.06 | 0.0821 | 0.0814 | 0.102 | 0.0653 | 0.0641 |  |
| I15K | 0.0753 | 0.0627 |  | 0.057 | 0.0646 |  | 0.0635 | 0.0538 | 0.0722 | 0.0755 | 0.0659 |  | 0.0605 |  | 0.0567 |  | 0.0588 | 0.0566 |  |
| I36Y | 0.0898 | 0.0509 |  | 0.0506 |  | 0.0409 | 0.0411 |  | 0.051 |  | 0.0453 |  | 0.042 |  | 0.0546 |  | 0.0326 | 0.0488 |  |
| I36H | 0.0487 | 0.0485 |  | 0.0404 |  | 0.0389 |  | 0.0557 | 0.0389 |  | 0.0309 |  |  |  |  |  |  |  | 0.0503 |
| S26W | 0.0661 | 0.0601 |  | 0.0785 |  | 0.0592 | 0.0628 | 0.0713 | 0.0651 |  | 0.0632 | 0.0577 |  |  | 0.0727 |  |  |  |  |
| S26L | 0.0556 | 0.0243 |  |  |  | 0.0715 |  | 0.0811 | 0.0579 | 0.075 |  |  |  |  |  |  |  |  |  |
| S26N | 0.0589 | 0.0593 | 0.0582 | 0.0615 |  | 0.0851 | 0.0676 |  | 0.0692 | 0.0706 | 0.0628 | 0.0696 |  |  |  |  | 0.073 | 0.0562 | 0.052 |
| K230N |  | 0.0691 | 0.0582 | 0.104 |  | 0.0708 |  | 0.0756 | 0.0623 | 0.065 | 0.0634 |  | 0.0729 |  | 0.093 | 0.047 | 0.0891 | 0.0726 | 0.0627 |
| L33M | 0.0716 |  | 0.0597 | 0.0685 |  | 0.0718 | 0.0669 | 0.0596 | 0.0646 | 0.0628 |  | 0.0625 | 0.0647 |  | 0.0639 |  | 0.0788 | 0.0642 |  |
| C111M | 0.0567 | 0.0585 |  | 0.0754 | 0.0644 | 0.042 | 0.0819 |  | 0.0538 | 0.0741 |  | 0.0698 | 0.0517 |  |  |  |  | 0.0687 | 0.0086 |
| T44S | 0.0616 | 0.0641 | 0.0973 | 0.0688 | 0.0675 |  | 0.063 | 0.0678 |  |  | 0.0676 |  | 0.0661 |  | 0.0686 |  |  | 0.0725 |  |
| I164D | 0.0454 | 0.0438 | 0.0619 | 0.0618 | 0.0626 |  | 0.0369 | 0.051 | 0.0552 | 0.0553 | 0.0576 | 0.0496 | 0.0611 | 0.0405 | 0.0709 |  | 0.0575 | 0.0518 |  |
| L156Q | 0.0504 | 0.0519 | 0.0449 | 0.0671 |  | 0.068 | 0.0556 | 0.0638 | 0.053 | 0.0539 | 0.0459 |  | 0.0584 |  |  |  | 0.0383 |  | 0.0793 |
| M219S |  | 0.0636 | 0.0625 | 0.075 |  | 0.068 | 0.0709 | 0.0627 | 0.0674 | 0.0578 | 0.0611 | 0.0583 | 0.0604 | 0.0527 | 0.0793 | 0.0545 | 0.0594 | 0.0635 | 0.0612 |
| S154W | 0.0719 | 0.0624 | 0.0665 | 0.0697 | 0.083 | 0.0465 | 0.0709 | 0.0734 | 0.0602 | 0.0701 |  |  | 0.0555 | 0.0671 | 0.0571 |  | 0.0645 |  |  |
| V220W | 0.0667 | 0.0675 | 0.0741 | 0.116 |  | 0.0604 | 0.0603 | 0.0746 | 0.0661 | 0.0715 | 0.0488 |  | 0.055 | 0.0546 |  | 0.0599 | 0.0664 | 0.0911 | 0.0706 |
| V220M |  | 0.0531 |  | 0.0886 |  | 0.073 | 0.0815 | 0.082 |  | 0.0742 |  | 0.0564 | 0.048 | 0.0721 |  | 0.0598 |  |  |  |
